According to the supplement of paper PMC8728848:
The other results are listed elsewhere or left out.

Assays:
Assay in all cases: glycan array binding signal (z-score within array); higher = stronger binding
Details in all cases: glycan notation: IUPAC condensed, linker removed
[1] = target: Kdn(a2-3)Gal(b1-4)GlcNAc
Outline: (§1)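 Negative Z-scores can be read as non-binding. The Z-score is calculated within each array and then averaged across arrays of one protein sequence at different concentrations or buffers and across linkers. Arrays, 3228 in all, were curated from the Consortium for Functional Glycomics database and kept only where the protein sequence was available.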

[2] = target: Man(a1-2)Man(a1-2)Man(a1-3)Man
Outline: as §1

[3] = target: Man(a1-2)Man(a1-2)Man(a1-3)[Man(a1-2)Man(a1-3)[Man(a1-2)Man(a1-6)]Man(a1-6)]Man(b1-4)GlcNAc(b1-4)GlcNAc
Outline: as §1

[4] = target: Man(a1-2)Man(a1-2)Man(a1-3)[Man(a1-2)Man(a1-6)[Man(a1-3)]Man(a1-6)]Man(b1-4)GlcNAc(b1-4)GlcNAc
Outline: as §1

[5] = target: Man(a1-2)Man(a1-2)Man(a1-6)[Man(a1-3)]Man
Outline: as §1

[6] = target: Man(a1-2)Man(a1-3)Man
Outline: as §1

[7] = target: Man(a1-2)Man(a1-3)[Man(a1-2)Man(a1-6)]Man
Outline: as §1

[8] = target: Man(a1-2)Man(a1-3)[Man(a1-3)[Man(a1-6)]Man(a1-6)]Man(b1-4)GlcNAc(b1-4)GlcNAc
Outline: as §1

[9] = target: Man(a1-2)Man(a1-3)[Man(a1-6)]Man(a1-6)[Man(a1-2)Man(a1-3)]Man(b1-4)GlcNAc(b1-4)GlcNAc
Outline: as §1

[10] = target: Man(a1-3)[Man(a1-6)]Man
Outline: as §1

[11] = target: Man(a1-3)[Man(a1-6)]Man(a1-6)[Man(a1-3)]Man(b1-4)GlcNAc(b1-4)GlcNAc
Outline: as §1

[12] = target: Man(a1-3)[Man(a1-6)]Man(b1-4)GlcNAc(b1-4)GlcNAc
Outline: as §1

[13] = target: Man(b1-4)GlcNAc
Outline: as §1

[14] = target: Neu5Ac(a2-3)Gal
Outline: as §1

[15] = target: Neu5Ac(a2-3)Gal(b1-3)GalNAc
Outline: as §1

[16] = target: Neu5Ac(a2-3)Gal(b1-3)GalNAc(b1-3)Gal(a1-4)Gal(b1-4)Glc
Outline: as §1

[17] = target: Neu5Ac(a2-3)Gal(b1-3)GalNAc(b1-4)[Neu5Ac(a2-3)]Gal(b1-4)Glc
Outline: as §1

[18] = target: Neu5Ac(a2-3)Gal(b1-3)GalNAc6S
Outline: as §1

[19] = target: Neu5Ac(a2-3)Gal(b1-3)GlcNAc
Outline: as §1

[20] = target: Neu5Ac(a2-3)Gal(b1-3)GlcNAc(b1-3)Gal(b1-4)GlcNAc
Outline: as §1

[21] = target: Neu5Ac(a2-3)Gal(b1-3)GlcNAc6S
Outline: as §1

[22] = target: Neu5Ac(a2-3)Gal(b1-3)[Fuc(a1-4)]GlcNAc
Outline: as §1

[23] = target: Neu5Ac(a2-3)Gal(b1-3)[Fuc(a1-4)]GlcNAc(b1-3)Gal(b1-4)[Fuc(a1-3)]GlcNAc
Outline: as §1

[24] = target: Neu5Ac(a2-3)Gal(b1-3)[Neu5Ac(a2-3)Gal(b1-4)]GlcNAc
Outline: as §1

[25] = target: Neu5Ac(a2-3)Gal(b1-3)[Neu5Ac(a2-6)]GalNAc
Outline: as §1

[26] = target: Neu5Ac(a2-3)Gal(b1-4)Glc
Outline: as §1

[27] = target: Neu5Ac(a2-3)Gal(b1-4)GlcNAc
Outline: as §1

[28] = target: Neu5Ac(a2-3)Gal(b1-4)GlcNAc(b1-3)Gal(b1-4)GlcNAc
Outline: as §1

[29] = target: Neu5Ac(a2-3)Gal(b1-4)GlcNAc(b1-3)Gal(b1-4)GlcNAc(b1-3)Gal(b1-4)GlcNAc
Outline: as §1

[30] = target: Neu5Ac(a2-3)Gal(b1-4)GlcNAc(b1-3)Gal(b1-4)[Fuc(a1-3)]GlcNAc
Outline: as §1

[31] = target: Neu5Ac(a2-3)Gal(b1-4)GlcNAc6S
Outline: as §1

[32] = target: Neu5Ac(a2-3)Gal(b1-4)[Fuc(a1-3)]GlcNAc
Outline: as §1

[33] = target: Neu5Ac(a2-3)Gal(b1-4)[Fuc(a1-3)]GlcNAc(b1-3)Gal
Outline: as §1

[34] = target: Neu5Ac(a2-3)Gal(b1-4)[Fuc(a1-3)]GlcNAc(b1-3)Gal(b1-4)GlcNAc
Outline: as §1

[35] = target: Neu5Ac(a2-3)Gal(b1-4)[Fuc(a1-3)]GlcNAc(b1-3)Gal(b1-4)[Fuc(a1-3)]GlcNAc(b1-3)Gal(b1-4)[Fuc(a1-3)]GlcNAc
Outline: as §1

[36] = target: Neu5Ac(a2-3)Gal(b1-4)[Fuc(a1-3)]GlcNAc6S
Outline: as §1

[37] = target: Neu5Ac(a2-3)Gal6S(b1-4)GlcNAc
Outline: as §1

[38] = target: Neu5Ac(a2-3)Gal6S(b1-4)[Fuc(a1-3)]GlcNAc
Outline: as §1

[39] = target: Neu5Ac(a2-3)GalNAc
Outline: as §1

[40] = target: Neu5Ac(a2-3)GalNAc(b1-4)GlcNAc
Outline: as §1

[41] = target: Neu5Ac(a2-3)[GalNAc(b1-4)]Gal(b1-4)Glc
Outline: as §1

[42] = target: Neu5Ac(a2-3)[GalNAc(b1-4)]Gal(b1-4)GlcNAc
Outline: as §1

[43] = target: Neu5Ac(a2-3)[Neu5Ac(a2-6)]GalNAc
Outline: as §1

[44] = target: Neu5Ac(a2-6)Gal(b1-4)GlcNAc
Outline: as §1

[45] = target: Neu5Ac(a2-6)Gal(b1-4)GlcNAc(b1-2)Man(a1-3)[Neu5Ac(a2-6)Gal(b1-4)GlcNAc(b1-2)Man(a1-6)]Man(b1-4)GlcNAc(b1-4)GlcNAc
Outline: as §1

[46] = target: Neu5Ac(a2-6)Gal(b1-4)GlcNAc(b1-3)Gal(b1-4)GlcNAc
Outline: as §1

[47] = target: Neu5Ac(a2-6)Gal(b1-4)GlcNAc(b1-3)Gal(b1-4)[Fuc(a1-3)]GlcNAc(b1-3)Gal(b1-4)[Fuc(a1-3)]GlcNAc
Outline: as §1

[48] = target: Neu5Ac(a2-6)Gal(b1-4)GlcNAc6S
Outline: as §1

[49] = target: Neu5Ac(a2-6)GalNAc
Outline: as §1

[50] = target: Neu5Ac(a2-6)GalNAc(b1-4)GlcNAc
Outline: as §1

[51] = target: Neu5Ac(a2-8)Neu5Ac
Outline: as §1

[52] = target: Neu5Ac(a2-8)Neu5Ac(a2-3)Gal(b1-4)Glc
Outline: as §1

[53] = target: Neu5Ac(a2-8)Neu5Ac(a2-3)[GalNAc(b1-4)]Gal(b1-4)Glc
Outline: as §1

[54] = target: Neu5Ac(a2-8)Neu5Ac(a2-8)Neu5Ac
Outline: as §1

[55] = target: Neu5Ac(a2-8)Neu5Ac(a2-8)Neu5Ac(a2-3)Gal(b1-4)Glc
Outline: as §1

[56] = target: Neu5Ac(a2-8)Neu5Ac(a2-8)Neu5Ac(a2-3)[GalNAc(b1-4)]Gal(b1-4)Glc
Outline: as §1

[57] = target: Neu5Ac(a2-8)Neu5Ac(a2-8)Neu5Ac(a2-8)Neu5Ac(a2-3)[GalNAc(b1-4)]Gal(b1-4)Glc
Outline: as §1

[58] = target: Neu5Ac9Ac(a2-6)Gal(b1-4)GlcNAc
Outline: as §1

[59] = target: Neu5Gc(a2-3)Gal(b1-3)GlcNAc
Outline: as §1

[60] = target: Neu5Gc(a2-3)Gal(b1-3)[Fuc(a1-4)]GlcNAc
Outline: as §1

[61] = target: Neu5Gc(a2-3)Gal(b1-4)Glc
Outline: as §1

[62] = target: Neu5Gc(a2-3)Gal(b1-4)GlcNAc
Outline: as §1

[63] = target: Neu5Gc(a2-3)Gal(b1-4)[Fuc(a1-4)]GlcNAc
Outline: as §1

[64] = target: Neu5Gc(a2-6)Gal(b1-4)GlcNAc
Outline: as §1

[65] = target: Neu5Gc(a2-6)GalNAc
Outline: as §1

B1: Alpha-agglutinin (Saccharomyces cerevisiae) (protein)
chain: MFTFLKIILWLFSLALASAININDITFSNLEITPLTANKQPDQGWTATFDFSIADASSIREGDEFTLSMPHVYRIKLLNSSQTATISLADGTEAFKCYVSQQAAYLYENTTFTCTAQNDLSSYNTIDGSITFSLNFSDGGSSYEYELENAKFFKSGPMLVKLGNQMSDVVNFDPAAFTENVFHSGRSTGYGSFESYHLGMYCPNGYFLGGTEKIDYDSSNNNVDLDCSSVQVYSSNDFNDWWFPQSYNDTNADVTCFGSNLWITLDEKLYDGEMLWVNALQSLPANVNTIDHALEFQYTCLDTIANTTYATQFSTTREFIVYQGR
glycan array binding signal (z-score) [1]: -0.207 | glycan array binding signal (z-score) [2]: -0.245 | glycan array binding signal (z-score) [3]: -0.201 | glycan array binding signal (z-score) [4]: -0.263 | glycan array binding signal (z-score) [5]: -0.25 | glycan array binding signal (z-score) [6]: -0.252 | glycan array binding signal (z-score) [7]: -0.245 | glycan array binding signal (z-score) [8]: -0.251 | glycan array binding signal (z-score) [9]: -0.237 | glycan array binding signal (z-score) [10]: -0.258 | glycan array binding signal (z-score) [11]: -0.254 | glycan array binding signal (z-score) [12]: -0.158 | glycan array binding signal (z-score) [13]: -0.237 | glycan array binding signal (z-score) [14]: -0.263 | glycan array binding signal (z-score) [15]: -0.256 | glycan array binding signal (z-score) [16]: -0.262 | glycan array binding signal (z-score) [17]: -0.261 | glycan array binding signal (z-score) [18]: -0.159 | glycan array binding signal (z-score) [19]: -0.266 | glycan array binding signal (z-score) [20]: -0.259 | glycan array binding signal (z-score) [21]: -0.179 | glycan array binding signal (z-score) [22]: -0.214 | glycan array binding signal (z-score) [23]: -0.231 | glycan array binding signal (z-score) [24]: -0.231 | glycan array binding signal (z-score) [25]: -0.251 | glycan array binding signal (z-score) [26]: -0.25 | glycan array binding signal (z-score) [27]: -0.264 | glycan array binding signal (z-score) [28]: -0.265 | glycan array binding signal (z-score) [29]: -0.261 | glycan array binding signal (z-score) [30]: -0.262 | glycan array binding signal (z-score) [31]: -0.253 | glycan array binding signal (z-score) [32]: -0.258 | glycan array binding signal (z-score) [33]: -0.243 | glycan array binding signal (z-score) [34]: -0.162 | glycan array binding signal (z-score) [35]: -0.131 | glycan array binding signal (z-score) [36]: -0.252 | glycan array binding signal (z-score) [37]: -0.225 | glycan array binding signal (z-score) [38]: -0.255 | glycan array binding signal (z-score) [39]: -0.213 | glycan array binding signal (z-score) [40]: -0.244 | glycan array binding signal (z-score) [41]: -0.258 | glycan array binding signal (z-score) [42]: -0.255 | glycan array binding signal (z-score) [43]: -0.272 | glycan array binding signal (z-score) [44]: -0.259 | glycan array binding signal (z-score) [45]: -0.206 | glycan array binding signal (z-score) [46]: -0.248 | glycan array binding signal (z-score) [47]: -0.258 | glycan array binding signal (z-score) [48]: -0.23 | glycan array binding signal (z-score) [49]: -0.193 | glycan array binding signal (z-score) [50]: -0.229 | glycan array binding signal (z-score) [51]: -0.116 | glycan array binding signal (z-score) [52]: -0.25 | glycan array binding signal (z-score) [53]: -0.105 | glycan array binding signal (z-score) [54]: -0.261 | glycan array binding signal (z-score) [55]: -0.253 | glycan array binding signal (z-score) [56]: -0.254 | glycan array binding signal (z-score) [57]: -0.128 | glycan array binding signal (z-score) [58]: -0.24 | glycan array binding signal (z-score) [59]: -0.06 | glycan array binding signal (z-score) [60]: -0.265 | glycan array binding signal (z-score) [61]: -0.268 | glycan array binding signal (z-score) [62]: -0.256 | glycan array binding signal (z-score) [63]: -0.266 | glycan array binding signal (z-score) [64]: -0.269 | glycan array binding signal (z-score) [65]: 0.016
